In the supplement of paper PMC8728848:
This is one part of the list.

Key:
Assay in all cases: glycan array binding signal (z-score within array); higher = stronger binding
Settings in all cases: glycan notation: IUPAC condensed, linker removed
GalNAc(b1-6)GalNAc = biological target: GalNAc(b1-6)GalNAc
Method in brief: (§1)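 Arrays were curated from the Consortium for Functional Glycomics database, 3228 in total, and kept only where the protein sequence was available. Binding is expressed as a within-array Z-score. This score was averaged across arrays of the same protein sequence at different concentrations or buffers and across linkers, and negative values can be read as non-binding.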

GalNAc3S(b1-4)GlcNAc = biological target: GalNAc3S(b1-4)GlcNAc
Method in brief: as §1

GalNAc3S(b1-4)GlcNAc3S = biological target: GalNAc3S(b1-4)GlcNAc3S
Method in brief: as §1

[1] = biological target: GalNAc3S(b1-4)[Fuc(a1-3)]GlcNAc
Method in brief: as §1

GalNAc4S6S(b1-4)GlcNAc = biological target: GalNAc4S6S(b1-4)GlcNAc
Method in brief: as §1

GalNAc6S(b1-4)GlcNAc = biological target: GalNAc6S(b1-4)GlcNAc
Method in brief: as §1

Glc(a1-4)Glc = biological target: Glc(a1-4)Glc
Method in brief: as §1

[2] = biological target: Glc(a1-4)Glc(a1-4)Glc(a1-4)Glc
Method in brief: as §1

Glc(a1-6)Glc(a1-6)Glc = biological target: Glc(a1-6)Glc(a1-6)Glc
Method in brief: as §1

[3] = biological target: Glc(a1-6)Glc(a1-6)Glc(a1-6)Glc
Method in brief: as §1

Glc(b1-4)Glc = biological target: Glc(b1-4)Glc
Method in brief: as §1

Glc(b1-6)Glc = biological target: Glc(b1-6)Glc
Method in brief: as §1

GlcA(b1-3)Gal = biological target: GlcA(b1-3)Gal
Method in brief: as §1

GlcA(b1-3)GlcNAc = biological target: GlcA(b1-3)GlcNAc
Method in brief: as §1

GlcA(b1-6)Gal = biological target: GlcA(b1-6)Gal
Method in brief: as §1

[4] = biological target: GlcA3S(b1-3)Gal(b1-4)GlcNAc(b1-2)Man
Method in brief: as §1

[5] = biological target: GlcA3S(b1-3)Gal(b1-4)GlcNAc(b1-3)Gal(b1-4)Glc
Method in brief: as §1

[6] = biological target: GlcNAc(a1-3)Gal(b1-4)GlcNAc
Method in brief: as §1

[7] = biological target: GlcNAc(a1-4)Gal(b1-3)GlcNAc
Method in brief: as §1

[8] = biological target: GlcNAc(a1-4)Gal(b1-4)GalNAc
Method in brief: as §1

[9] = biological target: GlcNAc(a1-4)Gal(b1-4)GlcNAc
Method in brief: as §1

[10] = biological target: GlcNAc(a1-4)Gal(b1-4)GlcNAc(b1-3)Gal(b1-4)Glc
Method in brief: as §1

[11] = biological target: GlcNAc(a1-4)Gal(b1-4)GlcNAc(b1-3)Gal(b1-4)GlcNAc
Method in brief: as §1

[12] = biological target: GlcNAc(a1-4)Gal(b1-4)GlcNAc(b1-3)Gal(b1-4)GlcNAc(b1-3)Gal(b1-4)GlcNAc
Method in brief: as §1

[13] = biological target: GlcNAc(a1-4)Gal(b1-4)GlcNAc(b1-3)Gal(b1-4)[Fuc(a1-3)]GlcNAc(b1-3)Gal(b1-4)[Fuc(a1-3)]GlcNAc
Method in brief: as §1

[14] = biological target: GlcNAc(a1-6)Gal(b1-4)GlcNAc
Method in brief: as §1

[15] = biological target: GlcNAc(b1-2)Gal(b1-3)GalNAc
Method in brief: as §1

[16] = biological target: GlcNAc(b1-2)Man(a1-3)[GlcNAc(b1-2)Man(a1-6)]Man(b1-4)GlcNAc(b1-4)GlcNAc
Method in brief: as §1

[17] = biological target: GlcNAc(b1-2)Man(a1-3)[GlcNAc(b1-2)Man(a1-6)]Man(b1-4)GlcNAc(b1-4)[Fuc(a1-6)]GlcNAc
Method in brief: as §1

[18] = biological target: GlcNAc(b1-2)Man(a1-3)[GlcNAc(b1-4)][GlcNAc(b1-2)Man(a1-6)]Man(b1-4)GlcNAc(b1-4)GlcNAc
Method in brief: as §1

[19] = biological target: GlcNAc(b1-2)Man(a1-3)[GlcNAc(b1-4)][GlcNAc(b1-2)Man(a1-6)]Man(b1-4)GlcNAc(b1-4)[Fuc(a1-6)]GlcNAc
Method in brief: as §1

[20] = biological target: GlcNAc(b1-2)[GlcNAc(b1-4)]Man(a1-3)[GlcNAc(b1-2)Man(a1-6)]Man(b1-4)GlcNAc(b1-4)GlcNAc
Method in brief: as §1

[21] = biological target: GlcNAc(b1-2)[GlcNAc(b1-4)]Man(a1-3)[GlcNAc(b1-4)][GlcNAc(b1-2)Man(a1-6)]Man(b1-4)GlcNAc(b1-4)GlcNAc
Method in brief: as §1

[22] = biological target: GlcNAc(b1-2)[GlcNAc(b1-4)]Man(a1-3)[GlcNAc(b1-4)][GlcNAc(b1-2)[GlcNAc(b1-6)]Man(a1-6)]Man(b1-4)GlcNAc(b1-4)GlcNAc
Method in brief: as §1

[23] = biological target: GlcNAc(b1-2)[GlcNAc(b1-4)]Man(a1-3)[GlcNAc(b1-4)][GlcNAc(b1-2)[GlcNAc(b1-6)]Man(a1-6)]Man(b1-4)GlcNAc(b1-4)[Fuc(a1-6)]GlcNAc
Method in brief: as §1

[24] = biological target: GlcNAc(b1-2)[GlcNAc(b1-6)]Man(a1-6)[GlcNAc(b1-2)Man(a1-3)]Man(b1-4)GlcNAc(b1-4)GlcNAc
Method in brief: as §1

[25] = biological target: GlcNAc(b1-2)[GlcNAc(b1-6)]Man(a1-6)[GlcNAc(b1-2)Man(a1-3)]Man(b1-4)GlcNAc(b1-4)[Fuc(a1-6)]GlcNAc
Method in brief: as §1

[26] = biological target: GlcNAc(b1-2)[GlcNAc(b1-6)]Man(a1-6)[GlcNAc(b1-4)][GlcNAc(b1-2)Man(a1-3)]Man(b1-4)GlcNAc(b1-4)GlcNAc
Method in brief: as §1

B1: MGL6A (Homo sapiens) (protein)
chain: MTRTYENFQYLENKVKVQGFKNGPLPLQSLLQRLCSGPCHLLLSLGLGLLLLVIICVVGFQNSKFQRDLVTLRTDFSNFTSNTVAEIQALTSQGSSLEETIASLKAEVEGFKQERQAVHSEMLLRVQQLVQDLKKLTCQVATLNNNGEEASTEGTCCPVNWVEHQDSCYWFSHSGMSWAEAEKYCQLKNAHLVVINSREEQNFVQKYLGSAYTWMGLSDPEGAWKWVDGTDYATGFQNWKPGQPDDWQGHGLGGGEDCAHFHPDGRWNDDVCQRPYHWVCEAGLGQTSQESH
glycan array binding signal (z-score) (GalNAc(b1-6)GalNAc): -0.247 | glycan array binding signal (z-score) (GalNAc3S(b1-4)GlcNAc): -0.255 | glycan array binding signal (z-score) (GalNAc3S(b1-4)GlcNAc3S): -0.241 | glycan array binding signal (z-score) [1]: -0.252 | glycan array binding signal (z-score) (GalNAc4S6S(b1-4)GlcNAc): -0.264 | glycan array binding signal (z-score) (GalNAc6S(b1-4)GlcNAc): 3.46 | glycan array binding signal (z-score) (Glc(a1-4)Glc): -0.271 | glycan array binding signal (z-score) [2]: -0.253 | glycan array binding signal (z-score) (Glc(a1-6)Glc(a1-6)Glc): -0.191 | glycan array binding signal (z-score) [3]: -0.263 | glycan array binding signal (z-score) (Glc(b1-4)Glc): -0.153 | glycan array binding signal (z-score) (Glc(b1-6)Glc): 0.08 | glycan array binding signal (z-score) (GlcA(b1-3)Gal): -0.238 | glycan array binding signal (z-score) (GlcA(b1-3)GlcNAc): -0.247 | glycan array binding signal (z-score) (GlcA(b1-6)Gal): -0.32 | glycan array binding signal (z-score) [4]: -0.23 | glycan array binding signal (z-score) [5]: -0.257 | glycan array binding signal (z-score) [6]: -0.343 | glycan array binding signal (z-score) [7]: -0.306 | glycan array binding signal (z-score) [8]: -0.178 | glycan array binding signal (z-score) [9]: -0.22 | glycan array binding signal (z-score) [10]: -0.294 | glycan array binding signal (z-score) [11]: -0.138 | glycan array binding signal (z-score) [12]: -0.301 | glycan array binding signal (z-score) [13]: -0.224 | glycan array binding signal (z-score) [14]: -0.295 | glycan array binding signal (z-score) [15]: -0.275 | glycan array binding signal (z-score) [16]: -0.27 | glycan array binding signal (z-score) [17]: -0.274 | glycan array binding signal (z-score) [18]: -0.275 | glycan array binding signal (z-score) [19]: -0.278 | glycan array binding signal (z-score) [20]: -0.252 | glycan array binding signal (z-score) [21]: -0.268 | glycan array binding signal (z-score) [22]: -0.278 | glycan array binding signal (z-score) [23]: -0.248 | glycan array binding signal (z-score) [24]: -0.262 | glycan array binding signal (z-score) [25]: -0.27 | glycan array binding signal (z-score) [26]: -0.278
